Reference: US20260258397A1, “REAGENTS AND SYSTEMS FOR […]” (priority 2023, published 2026)

These compounds were tested against T1, PYR1^PIRI (Arabidopsis thaliana, UniProt O49686, A160T/E130G/F159T/K59R/N119S/S122Q/S92M/V174A) (assay: cell-based). Conditions: PYR1-PIRI; fit bottom of GFP fluorescence response.
T1 construct: expressed in transfected cells; host or cells: S. cerevisiae (2µ plasmid)
T1 sequence (O49686 1-191 K59R/S92M/N119S/S122Q/E130G/F159T/A160T/V174A): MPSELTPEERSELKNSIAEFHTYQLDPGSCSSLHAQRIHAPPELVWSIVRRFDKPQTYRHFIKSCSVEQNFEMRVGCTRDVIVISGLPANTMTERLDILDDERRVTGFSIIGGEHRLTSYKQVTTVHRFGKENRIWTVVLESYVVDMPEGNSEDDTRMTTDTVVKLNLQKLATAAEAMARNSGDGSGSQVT
T1 sequence (Q9CAJ0 178-511 partner): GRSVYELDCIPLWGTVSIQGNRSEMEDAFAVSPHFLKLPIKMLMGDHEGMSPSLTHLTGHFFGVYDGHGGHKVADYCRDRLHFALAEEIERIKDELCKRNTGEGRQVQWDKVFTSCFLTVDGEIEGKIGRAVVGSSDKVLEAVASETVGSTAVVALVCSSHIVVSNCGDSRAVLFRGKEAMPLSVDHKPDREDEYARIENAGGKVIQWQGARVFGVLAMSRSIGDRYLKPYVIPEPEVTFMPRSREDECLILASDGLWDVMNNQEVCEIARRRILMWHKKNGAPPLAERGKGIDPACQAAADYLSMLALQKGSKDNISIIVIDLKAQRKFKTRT
Assay type: cell-based
From the text: PYR1 variants were used to drive gene expression in an inducible genetic circuit by fusing a zinc finger DNA binding domain (Z4^32) to the N-terminus of PYR1, and the VP64 activation domain 33 to the N-terminus of ΔN-HAB1. The SV40 nuclear localization signal was also fused to the N-terminus of PYR1. A single 2u plasmid was used to express SV40-Z4DBD-PYR1 and VP64-HAB1, while the GFP expression cassette (Z44-CYCcore-GFP-CYC 1term) was integrated at the YPRCΔ15 site on chromosome XVI. GFP fluorescence induced by each circuit was measured 12 h after ligand addition to 1 mL cultures, 30° C. Fluorescence was measured by flow cytometry. […] The fluorescence intensity of each cell was measured using a BD Accuri C6 flow cytometer equipped with auto-loading. The forward scatter, side scatter, and GFP fluorescence (Ex/Em 488/533 nm) were recorded for a minimum of 10,000 events. […]
Three single transformants were picked from selection plates, inoculated in 2 mL of SD-Ura containing 2% glucose in 14 mL culture tubes. After 24 hours of growth at 30° C. in a shaker incubator (200 rpm), the OD600 of each sample was measured and cultures were back diluted to OD600=0.2 in fresh SD-Ura, the total volume of diluted culture was 9 mL. […] The fluorescence intensity of cells within each sample was measured using a BD Accuri C6 flow cytometer equipped with auto-loading from 96 well plates. […]
In the case of `CCOP(=S)(OCC)SCn1nnc2ccccc2c1=O` [Azinphos, azinphos-ethyl], the Bottom is reported as 15284. `CCOP(=S)(OCC)Oc1ccc2c(C)c(Cl)c(=O)oc2c1` [Coumaphos] gave a Bottom of 13267.

What follows are compounds tested on PYR1 mutant receptors (ligand-dependent binding to HAB1) (assay: Yeast two-hybrid screens of PYR1 DSM and CB-S libraries for cannabinoid sensors). Conditions: CB-S1 library screened on 30 μM: JWH-007 PYR1 K59S/V83W/Y120G/F159A; JWH-167 and AB-PINACA Y120G/F159L/A160G; JWH-193 Y120G/F159V/A160G; A9-THC E4G/H115Q/Y120G/A160G.
In the case of `CCCCCc1cc(O)c2c(c1)OC(C)(C)[C@@H]1CCC(C)=C[C@@H]21` [A9-THC], the “concentrations to which sensors respond” value is reported as “μM concentrations”. With `CCCCCn1nc(C(=O)N[C@H](C(N)=O)C(C)C)c2ccccc21` [AB-PINACA] the “concentrations to which sensors respond” value was “μM concentrations”. For `CCCCCn1c(C)c(C(=O)c2cccc3ccccc23)c2ccccc21` [JWH-007], the “concentrations to which sensors respond” value was “μM concentrations”. `CCCCCn1cc(C(=O)Cc2ccccc2)c2ccccc21` [JWH-167] was tested, and the “concentrations to which sensors respond” value was “μM concentrations”. For `Cc1ccc(C(=O)c2cn(CCN3CCOCC3)c3ccccc23)c2ccccc12` [JWH-193], the “concentrations to which sensors respond” value was “μM concentrations”.

Same assay, conditions: CB-S2 library screened on 50 nM, 25 nM: JWH-015 PYR1 K59N/Y120H/F159L/A160G; JWH-016 V81I/Y120G/F159L/A160G; JWH-072 E4G/K59N/Y120H/F159L/A160G; WIN 55,212 E4G/Y23H/D26G/K59Q/F159A/A160I
`CCCn1c(C)c(C(=O)c2cccc3ccccc23)c2ccccc21` [JWH-015] was tested, and the “affinity of improved sensors” value was “low nM affinity”. In the case of `CCCCn1c(C)c(C(=O)c2cccc3ccccc23)c2ccccc21` [JWH-016], the “affinity of improved sensors” value is reported as “low nM affinity”. For `CCCn1cc(C(=O)c2cccc3ccccc23)c2ccccc21` [JWH-072], the “affinity of improved sensors” value was “low nM affinity”.
